Experimental data reported in PubChem BioAssay AID1345083 (National Center for Advancing Translational Sciences (NCATS), 2018).
Several values for one entry are separate records, joined by “and”; a condition that tells them apart may be missing. Equal entries are not always repeated. About 6,200 (6.6%) of roughly 94,000 compounds were called active. The inconclusive results got no clear call from the source; some entries with a clear call stand among them for comparison. Calls follow the shape of the dose curve; as a rule, active = well fitted inhibition curve with a large enough effect; inconclusive = small, poorly fitted or top-dose-only effect; inactive = flat fitted curve, though single readings scatter. Potencies beside an inconclusive call are fits to weak or partial responses and may not hold up.

Test: Cytotoxic Profiling in HEK 293 Cell Line of Diverse Libraries Using Quantitative High-Throughput Screening; also: nearly all actives have a fitted effect of over 60% in size
Settings: HEK 293 viability, ATP luminescence (CellTiter-Glo), 48-72 h; activity change, negative = cytotoxicity: at 115 µM (top of the series) unless noted; series mostly up to 115 µM
Procedure, shortened: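 ATP-coupled CellTiter-Glo luminescence served as viability read-out, recorded 10 min after reagent addition at room temperature. HEK 293 cells, 250 cells/well, had been incubated with pintool-transferred compound for 48 or 72 hr at 37 degree Celsius.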
% is scaled to controls: 0 for no effect and ±100 for the full control effect; potency is read from the fitted curve at half-maximal effect; tags tell the direction and shape of the fitted curve.

Row | Structure (SMILES) | Potency | activity change, negative = cytotoxicity | outcome
1 | O=C1CCN(CC(O)COc2ccccc2)c2ccccc2CN1C1CC1 (stereo not given) | active: 39.8 µM |  | 
2 | c1coc(CN2CCC(NC3CCCN(c4nc5ccccc5s4)C3)CC2)c1 (stereo not given) | inconclusive: 20 µM [inhibitor, full curve, poor fit] |  | 
3 | CC(C)NC(=O)N1CCC[C@H]1c1nc(-c2ccc(F)cc2)n[nH]1 |  | inactive: -1.89% | 
4 | Cc1ccc(Nc2ccnc(N3CCC(C(=O)N4CCC(Cc5ccccc5)CC4)CC3)n2)cc1 | active: 35.5 µM |  | 
5 | O=C(NCc1ccccc1Cl)C1CCN(Cc2ccccc2-c2cccnc2)CC1 | inconclusive: 56.2 µM [inhibitor, partial curve, poor fit] |  | 
6 | Cc1ccc(-c2noc([C@@H]3C[C@H](NC(=O)Nc4ccc(Cl)cc4)CN3C)n2)cc1 |  | inactive: -43.3% [at 172 µM] | 
7 | O=C1CCN(S(=O)(=O)c2cccc(F)c2)CCCC(c2nc(-c3ccccc3)no2)CCN1 (stereo not given) | inconclusive: 89.1 µM [inhibitor, single point] |  | 
8 | O=C(c1ccc2nnc(-c3cc(C(F)(F)F)cc(C(F)(F)F)c3)n2c1)N1CCOCC1 |  | inactive: -4.63% | 
9 | CCOc1ccccc1CNC(=O)c1c(OCC)cc(=O)n2c1CCCC2 |  | inactive: 0.858% | 
10 | Cc1ccccc1CN1Cc2nc(-c3cnn(Cc4ccccc4)c3)ccc2OCC1=O | active: 35.5 µM |  | 
11 | COc1ccc(CN2CC3(Cc4ccccc4C(=O)N3)C2)cc1 | inconclusive: 112 µM [inhibitor, single point] |  | 
12 | COc1cccc(-c2ccccc2NC(=O)C2CCN(Cc3cc(OC)ccc3O)CC2)c1 | active: 17.8 µM |  | 
13 | Cc1ccccc1CN1CC(Oc2cccc(C(=O)NCC3CC3)c2)C1 | inconclusive: 56.2 µM [inhibitor, partial curve, poor fit] |  | 
14 | COc1ccc(C(=O)N2CC[C@H]3CC(=O)N(CCc4cnc[nH]4)CC[C@H]3C2)cc1 |  | inactive: -21.8% [at 172 µM] | 
15 | O=S(=O)(NC[C@H]1OC[C@@H](NCc2ccccc2F)[C@@H]1O)c1ccccc1 |  | inactive: -8.97% [at 172 µM] | 
16 | COCC1(c2nc(-c3ccc(C(N)=O)cc3)nn2-c2ccc(OC)cc2)CC1 |  |  | inactive
17 | O=S(=O)(Cc1ccccc1F)N1CCCC(Cc2noc(C3CC3)n2)C1 (stereo not given) |  | inactive: -25.1% | 
18 | CCCN(C)c1nccnc1OC1CCN(C(=O)CC(C)C)C1 (stereo not given) | inconclusive: 56.2 µM [inhibitor, partial curve, poor fit] |  | 
19 | O=C(NCc1ccccc1)c1ccc(N2CC3CC(C2)[C@H]2CCCC(=O)N2C3)nc1 (stereo not given in full) |  | inactive: -9.89% | 
20 | O=C(c1ccc(-c2cncnc2)cc1)N1CCC(N[S+](=O)([O-])c2ccccc2)CC1 |  | inactive: -13.2% | 
21 | O=C(Nc1ccc(Cl)cc1)N1CCCC(C(=O)N2CCC(N3CCCC3=O)CC2)C1 (stereo not given) |  | inactive: -3.54% | 
22 | O=C1CN([S+](=O)([O-])c2ccc(F)cc2)CC(O)CN1C1Cc2ccccc2C1 (stereo not given) | inconclusive: 100 µM [inhibitor, single point] |  | 

Row | Structure (SMILES) | Potency | activity change, negative = cytotoxicity | outcome
23 | O=C(NCC1CC1)c1cc(-c2cccc(C(F)(F)F)c2)c2cccn2n1 | active: 28.2 µM |  | 
24 | COc1cccc(C(=O)N2CC3(Cc4ccccc4N([S+](C)(=O)[O-])C3)C2)c1 | inconclusive: 79.4 µM [inhibitor, partial curve, poor fit] |  | 
25 | COc1ccccc1C(=O)NCc1nnc2ccc(-c3ccc(C)cc3)nn12 | inconclusive: 3.55 µM [inhibitor, full curve, poor fit] |  | 
26 | CSCCC(=O)N1CCC(C2CCN(c3ncccn3)CC2)C1 (stereo not given) | inconclusive: 79.4 µM [inhibitor, single point] |  | 
27 | COc1cc(-c2cccs2)cc2c1OCCN(C(=O)c1ccncc1C)C2 | inconclusive: 89.1 µM [inhibitor, single point] |  | 
28 | Cc1ccc(NC(=O)c2ccc(CN3C(=O)NC4(CCOCC4)C3=O)cc2)cc1C | inconclusive: 79.4 µM [inhibitor, partial curve, poor fit] |  | 
29 | Cc1cc(CNC(=O)c2cc(-c3ccccc3F)cc3c2OCCN3C)no1 | inconclusive: 112 µM [inhibitor, partial curve] |  | 
30 | O=C(Cc1cccc(Cl)c1)NCCNC(=O)c1ccc(-c2cccc(C(F)(F)F)c2)cc1 | inconclusive: 56.2 µM [inhibitor, partial curve, poor fit] |  | 
31 | CN1CCOc2c(C(=O)NCCN3CCNC3=O)cc(-c3cccnc3)cc21 | inconclusive: 100 µM [inhibitor, partial curve, poor fit] |  | 
32 | COc1cccc(-c2cc(C(=O)Nc3cccc(C(F)(F)F)c3)c3cnn(C)c3n2)c1 | active: 31.6 µM |  | 
33 | CCN1c2cc(C(=O)Nc3ccc(N(C)C)cc3)ccc2C(=O)N2CCCCCC21 (stereo not given) | active: 39.8 µM |  | 
34 | O=C(c1ccncc1)N1CCC(c2cc(-c3ccc(F)cc3)n[nH]2)CC1 | inconclusive: 39.8 µM [inhibitor, partial curve] |  | 
35 | COc1ccc(CC(=O)N2Cc3ccccc3CC3(CCCN(C)C3)C2)cc1 (stereo not given) | inconclusive: 79.4 µM [inhibitor, partial curve, poor fit] |  | 
36 | CCN(Cc1ccccc1)C(=O)C1CCCN(C2CCN(C(=O)C3CC3)CC2)C1 (stereo not given) |  | inactive: 4.18% | 
37 | Cc1csc(NC(=O)c2nc(C(O)c3ccccc3)oc2C)n1 (stereo not given) | inconclusive: 100 µM [inhibitor, partial curve] |  | 
38 | O=C(Cn1cccc1-c1nc(-c2ccc(F)cc2)no1)Nc1ccc2c(c1)OCO2 | inconclusive: 89.1 µM [inhibitor, single point] |  | 
39 | COc1ccc(CNC(=O)c2cc(-c3ccc(F)cc3)cc3ncn(C)c23)cc1OC | inconclusive: 100 µM [inhibitor, partial curve, poor fit] |  | 
40 | CN1CCN(Cc2cn(Cc3ccccc3)nc2-c2ccc3c(c2)OCO3)CC1 | inconclusive: 100 µM [inhibitor, single point] |  | 
41 | O=C(NCc1ccccc1)C1CCN(C(=O)c2nnn3c2COC(c2ccc(F)cc2)C3)CC1 (stereo not given) |  | inactive: 11.5% | 
42 | Cc1ccc(C(=O)N2CCC3(CC2)N=C(c2cccc(Br)c2)NO3)s1 | inconclusive: 89.1 µM [inhibitor, single point] |  | 
43 | COCc1cc(CC2(NCc3ccc(N(C)C)cc3)COC2)no1 |  | inactive: -10.5% [at 172 µM] | 
44 | CN1CCCC2(C1)CN(C)c1ccc(C(=O)NCCOc3ccccc3)cc12 (stereo not given) | inconclusive: 100 µM [inhibitor, partial curve] |  | 

Row | Structure (SMILES) | Potency | activity change, negative = cytotoxicity | outcome
45 | COc1ccc(C(=O)N[C@H]2CO[C@H]3[C@@H]2OC[C@@H]3n2nnnc2Oc2cccc(N(C)C)c2)cc1 | inconclusive: 11.2 µM [inhibitor, partial curve, poor fit] |  | 
46 | Cc1cccc(C)c1NC(=O)Cn1c(=O)n(-c2ccccc2)c(=O)c2c1cc(C)n2C |  | inactive: 9.3% | 
47 | COc1ccc(-c2cc(C(=O)NCc3c(C)cc(C)[nH]c3=O)c3c(c2)N(C(C)C)CCO3)cc1OC | inconclusive: 39.8 µM [inhibitor, partial curve, poor fit] |  | 
48 | Fc1ccc(-c2cnc([C@@H]3COCCN3Cc3ccccc3F)[nH]2)c(F)c1 | active: 100 µM |  | 
49 | COc1cccc(OC)c1CN1CC(O)CN(C(=O)OCC(C)C)CC1=O (stereo not given) | inconclusive: 79.4 µM [inhibitor, partial curve, poor fit] |  | 
50 | CCCN1CCC2(CCN(C(=O)c3ccccc3C)CC2)Oc2ccccc21 | inconclusive: 50.1 µM [inhibitor, partial curve, poor fit] |  | 
51 | C[S+](=O)([O-])N1CCc2nc(C3CC3)nc(-c3ccc(Cl)cc3)c2C1 | inconclusive: 44.7 µM [inhibitor, partial curve, poor fit] |  | 
52 | O=C(c1cccc(Cl)c1)N1C[C@@H](CO)[C@H](c2nc(C3CC3)no2)C1 | inconclusive: 7.08 µM [inhibitor, full curve, poor fit] |  | 
53 | Cc1ccc(-c2nocc2CCC(=O)N2CCC(Cc3ccccc3)CC2)cc1 | inconclusive: 50.1 µM [inhibitor, partial curve, poor fit] |  | 
54 | Cc1ccc(-c2cn3cc(C(=O)NCCN4CCOCC4)nc3s2)cc1 |  | inactive: -5.15% | 
55 | O=C(Cc1cccnc1)N1CCCC(c2nc(CCOc3ccc(F)cc3)no2)C1 (stereo not given) | inconclusive: 100 µM [inhibitor, single point] |  | 
56 | CCN(C)Cc1cn(Cc2ccccc2)nc1-c1ccc2c(c1)OCO2 |  | inactive: -3.5% | 
57 | O=C(NCc1cccs1)C1CCN(c2nccc(Nc3ccccc3Cl)n2)CC1 | active: 44.7 µM |  | 
58 | CC(C)C[C@@H]1N[C@H](C(=O)N2CCCC2)Cc2cn(Cc3nccn3C)c3cccc1c23 | inconclusive: 100 µM [inhibitor, partial curve, poor fit] |  | 
59 | COc1ccc(C(=O)NC2CCN(c3cc(-c4ccc(F)cc4)[nH]n3)CC2)c(OC)c1 | inconclusive: 50.1 µM [inhibitor, partial curve, poor fit] |  | 
60 | O=C(c1ccccc1Cl)N1C[C@@H](CO)[C@H](c2nc(C3CC3)no2)C1 | inconclusive: 44.7 µM [inhibitor, partial curve, poor fit] |  | 
61 | COc1ccccc1-c1ccc(CN2CCCC(c3nc4ccc(F)cc4c(=O)[nH]3)C2)cc1 (stereo not given) | inconclusive: 39.8 µM [inhibitor, partial curve, poor fit] and active: 35.5 µM |  | 
62 | Cc1ccc(CN2Cc3[nH]cnc3C[C@H]2c2nc(-c3ccc4ccccc4c3)no2)cc1 | active: 63.1 µM |  | 
63 | COc1ccccc1CN(C)C1CCc2ccccc21 (stereo not given) | inconclusive: 39.8 µM [inhibitor, full curve] and inconclusive: 70.8 µM [inhibitor, partial curve, poor fit] |  | 
64 | O=C(NC1CCc2nnc(C3CC3)n2CC1)c1ccco1 (stereo not given) |  | inactive: -27.7% | 
65 | O=C(NC1CCN(c2cc(-c3ccccc3)[nH]n2)C1)c1cc(F)ccc1Cl (stereo not given) | inconclusive: 79.4 µM [inhibitor, partial curve, poor fit] |  | 
